{"source": "patent US12544366B2", "about": "“Combination of endocannabinoid and mTOR inhibitors in the treatment of neuroendocrine neoplasms” (HADASIT MEDICAL RESEARCH SERVICES AND DEVELOPMENT LTD., priority 2022, dated 2026)", "key": {"[1]": {"test_system": "NEN cells (NCI-H727 and PNET BON1)", "experiment": "Annexin V / propidium iodide FACS analysis of apoptosis and necrosis", "assay_type": "cell-based, human", "conditions": "relative to untreated cells", "text": "In the dot plots, each dot represents a single cell; apoptotic cells are located above the horizontal line of the quadrats, necrotic cells are located right to the vertical line of the quadrants.\nFor apoptosis evaluation cells were stained with-APC tagged Annexin V and Propidium Iodide (PI) according to the manufacturer's instructions (BioLegend, San Diego, CA, USA)."}, "[2]": {"test_system": "NCI-H727 and PNET BON-1 cells"}, "[3]": {"test_system": "NEN cell lines PNET BON1 and NCI-H727", "experiment": "WST-1 viability assay of NEN cell lines"}, "[4]": {"test_system": "lung NCI-H727 tumor xenograft", "experiment": "Subcutaneous NEN xenograft tumor model", "conditions": "day 23; IP injections; control PBS reached 400%"}}}
{"smiles": "Cc1c(C(=O)NN2CCCCC2)nn(-c2ccc(Cl)cc2Cl)c1-c1ccc(I)cc1", "note": "[AM251]", "values": [{"measurement": "increase of NENs apoptosis", "setting": "[1]; 10 uM and 30 uM", "value": "more than 2 fold"}, {"measurement": "reduction of the percentage of necrotic cells", "setting": "[1]", "value": 2, "unit": "fold"}, {"measurement": "effect on cell proliferation (CFSE generations)", "setting": "[2]; 48 hours of treatment, 6 to 8 generations", "value": "causes cell arrest"}, {"measurement": "cell cycle phase", "setting": "[2]; NCI-H727 and PNET BON-1 cells, FACS", "value": "transition from S phase and G2 M phase to G0/G1 phase"}]}
{"smiles": "COc1ccc2c(c1)c(CC(=O)N1CCOCC1)c(C)n2C(=O)c1ccc(Cl)cc1", "note": "[BML-190]", "values": [{"measurement": "effect on viability of the cells", "setting": "[3]; antagonist alone, cells not exposed to cannabis extract", "value": "did not reduce the viability of the cells"}]}
{"smiles": "CO[C@H]1C[C@@H]2CC[C@@H](C)[C@@](O)(O2)C(=O)C(=O)N2CCCC[C@H]2C(=O)O[C@H]([C@H](C)C[C@@H]2CC[C@@H](OCCO)[C@H](OC)C2)CC(=O)[C@H](C)/C=C(\\C)[C@@H](O)[C@@H](OC)C(=O)[C@H](C)C[C@H](C)/C=C/C=C/C=C/1C", "note": "[Everolimus, everolimus]", "values": [{"measurement": "tumor volume versus initial tumor size (100% at baseline)", "setting": "[4]", "value": 200, "unit": "%"}, {"measurement": "effect on NEN cell viability", "setting": "[3]; Everolimus alone at 20 nM and 50 nM, over 72 hrs, WST-1", "value": "did not affect NEN cell viability"}]}
